Measured values from publication PMC5005315.
These are yes or no findings as the source states them, for the method shown. For part of these data: Binding seen in cells or lysates may run through a third protein. Some binding calls cover weakened binding; strength is not graded here. For part of these data: Tags and fused reporters may be left off the sequences shown.

Amino acid sequences for entries named in this document (tags omitted).
UniProt B2RLE8: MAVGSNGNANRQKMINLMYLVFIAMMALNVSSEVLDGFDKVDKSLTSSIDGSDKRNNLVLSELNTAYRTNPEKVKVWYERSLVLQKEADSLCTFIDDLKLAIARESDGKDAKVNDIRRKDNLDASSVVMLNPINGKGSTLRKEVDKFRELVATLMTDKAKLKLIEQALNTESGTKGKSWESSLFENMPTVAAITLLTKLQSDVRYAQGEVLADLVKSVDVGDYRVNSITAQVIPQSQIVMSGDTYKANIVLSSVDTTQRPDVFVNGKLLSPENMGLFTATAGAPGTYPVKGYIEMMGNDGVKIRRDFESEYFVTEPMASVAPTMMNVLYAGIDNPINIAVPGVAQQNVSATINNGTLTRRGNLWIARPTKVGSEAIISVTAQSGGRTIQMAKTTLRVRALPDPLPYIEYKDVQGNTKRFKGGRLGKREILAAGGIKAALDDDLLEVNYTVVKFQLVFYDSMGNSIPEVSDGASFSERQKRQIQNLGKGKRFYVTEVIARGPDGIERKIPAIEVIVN

How the values were obtained:
[1] = biological target: T1, PorL, bacterial two-hybrid fusion (Porphyromonas gingivalis ATCC33277) (UniProt B2RLE9); experiment: two-hybrid
T1 sequence: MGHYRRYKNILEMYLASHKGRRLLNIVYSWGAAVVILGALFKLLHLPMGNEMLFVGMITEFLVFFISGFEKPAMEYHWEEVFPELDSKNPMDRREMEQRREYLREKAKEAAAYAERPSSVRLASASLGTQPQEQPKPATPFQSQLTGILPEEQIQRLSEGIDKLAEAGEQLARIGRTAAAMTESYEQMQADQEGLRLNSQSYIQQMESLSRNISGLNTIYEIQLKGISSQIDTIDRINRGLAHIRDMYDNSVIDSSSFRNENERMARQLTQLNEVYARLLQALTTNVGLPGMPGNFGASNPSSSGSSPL

[2] = biological target: cytoplasmic domain of PorL (PorLC, amino-acids 73-309), bacterial two-hybrid fusion (Porphyromonas gingivalis ATCC33277) (UniProt B2RLE9); experiment: two-hybrid
[3] = biological target: PorM, bacterial two-hybrid fusion (Porphyromonas gingivalis ATCC33277) (UniProt B2RLE8); experiment: two-hybrid
[4] = biological target: PorL_(CΔCt) (amino-acids 73-274), bacterial two-hybrid fusion (Porphyromonas gingivalis ATCC33277) (UniProt B2RLE9); experiment: two-hybrid
[5] = biological target: T2, 6 x His-tagged sequence signal-less Peptidoglycan-associated lipoprotein (Pal) (E. coli) (UniProt P0A912); experiment: pull-down; protein-protein co-purification; purified PorX mixed with 6 x His-tagged PorYC or Pal, applied to Co2+-NTA beads (Talon) in Tris-HCl 50 mM pH 8.0, NaCl 150 mM, 25°C 45 min, washes with imidazole 10 mM; SDS-PAGE and Coomassie blue staining; both purified
T2 sequence: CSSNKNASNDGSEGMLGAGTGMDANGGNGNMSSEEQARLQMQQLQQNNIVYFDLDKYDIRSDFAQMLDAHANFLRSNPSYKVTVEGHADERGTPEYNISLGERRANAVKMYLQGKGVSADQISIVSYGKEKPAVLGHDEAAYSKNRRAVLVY

[6] = biological target: cytoplasmic domain of PorL (PorLC, amino-acids 73-309) produced in E. coli W3110 for co-immune-precipitation (Porphyromonas gingivalis ATCC33277) (UniProt B2RLE9); experiment: co-IP

B1: PorX fused to the T18 domain of the Bordetella adenylate cyclase (protein, UniProt B2RJJ3 1-518)
chain: MEKNMRPYTVLWADDEIDLLKPHILFLEQKGYQVTPVLSGNDAIEALQNNDFDIVFLDENMPGIGGLDALQKIKELKPYTPVVMITKSEEEHIMTQAIGGKIADYLIKPVNPNQLLLSLKKNLQQHSIISETTNTNYRQEFVQLGAQMSGKLSFEEWKELYRRIVFWEIELEQADRQMGELLEMQKQEANRLFARFVTQNYREWIAKPDTRPTMSPDLFKQKVFPLLDNGEKVFFILIDNFRQDQWESVKSMLSEFYTFEEDMYLSILPTATQYARNAIFSGLMPLQIEKMFPDLWVDEESEEGKNLNEEPMIRTLIERYRKHYSFSYNKVYETKFGERLLGQIRSLSQNQLNVIVLNFVDMMSHARTDSKMIRELASNEAAYRSLTKSWFKHSTTYNLFRSIAEMGYKVVLTTDHGTIQVKNPVKVIGDRSTNTNLRYKIGKNLDYNPKEVFEIKDPASVGLPHNNLSDKFIFTKEDDFFAYPNNYNYYVQYYRNTFQHGGISLEEMLVPVITMQPK
- binding [1]: binds
- binding [2]: binds
- binding [3]: no binding
- binding [4]: no binding

B2: purified untagged PorX (protein, UniProt B2RJJ3 1-518)
chain: B1 chain
- binding [5]: no binding

B3: PorX produced in E. coli W3110 for co-immune-precipitation (protein, UniProt B2RJJ3 1-518)
chain: B1 chain
- binding [6]: binds
